This test has as its system Staphylococcus aureus subsp. aureus CCM 4223 (ATCC 29213). As to the kind of experiment: microbe, parasite or virus in culture.

Like-named read-outs stand apart in the source and are kept apart here. A value given as a limit tells only on which side of the number the result lay.

As for `CCOC(=O)[C@H](Cc1ccc(O)cc1)NC(=O)c1cnccn1` [PC-L-Tyr-Et, ethyl (pyrazine-2-carbonyl)-L-tyrosinate], under “24 h, read-out: MIC SA”, the MIC was > 500 µM. On to `COC(=O)[C@H](COCc1ccccc1)NC(=O)c1cnccn1` [PC-L-OBn-Ser-Me, methyl O-benzyl-N-(pyrazine-2-carbonyl)-L-serinate], for which the MIC (24 h, read-out: MIC SA) was > 250 µM. On the same count and under the same terms, the same measure for `C[C@H](NC(=O)c1cnccn1)C(=O)O` [PC-L-Ala, (pyrazine-2-carbonyl)-L-alanine]: > 500 µM; for `COC(=O)[C@@H](NC(=O)c1cnccn1)C(C)C` [PC-L-Val-Me, methyl (pyrazine-2-carbonyl)-L-valinate]: > 500 µM; for `COC(=O)[C@H](COC(C)(C)C)NC(=O)c1cnccn1` [PC-L-OtBu-Ser-Me, methyl O-(tert-butyl)-N-(pyrazine-2-carbonyl)-L-serinate]: > 500 µM. Same read-out and setting: the same measure for `COC(=O)[C@@H](Cc1ccc(O)cc1)NC(=O)c1cnccn1` [PC-D-Tyr-Me, methyl (pyrazine-2-carbonyl)-D-tyrosinate]: > 500 µM.

As to `COC(=O)[C@@H](NC(=O)c1cnccn1)[C@@H](C)O` [PC-L-Thr-Me, methyl (pyrazine-2-carbonyl)-L-threoninate], the MIC (24 h, read-out: MIC SA) stood at 500 µM.

For `O=C(N[C@@H](COCc1ccccc1)C(=O)O)c1cnccn1` [PC-L-OBn-Ser, O-benzyl-N-(pyrazine-2-carbonyl)-L-serine], the MIC (24 h, read-out: MIC SA) is > 500 µM.

Consider `COC(=O)C(NC(=O)c1cnccn1)c1ccccc1` [PC-D/L-Pgl-Me, methyl 2-phenyL-2-(pyrazine-2-carboxamido)acetate], for which the MIC (24 h, read-out: MIC SA) was > 500 µM. As for `CCOC(=O)CNC(=O)c1cnccn1` [PC-Gly-Et, ethyl (pyrazine-2-carbonyl)glycinate], the MIC (24 h, read-out: MIC SA) was > 500 µM. For the molecule `O=C(O)CNC(=O)c1cnccn1` [PC-Gly, (pyrazine-2-carbonyl)glycine], the MIC (24 h, read-out: MIC SA) was > 500 µM. Same read-out and setting: the same measure for `O=C(N[C@H](CO)C(=O)O)c1cnccn1` [PC-D-Ser, (pyrazine-2-carbonyl)-D-serine]: > 500 µM; for `COC(=O)[C@H](C)NC(=O)c1cnccn1` (racemic) [PC-DL-Ala-Me, methyl (pyrazine-2-carbonyl)alaninate]: > 500 µM; for `CCOC(=O)C[C@H](NC(=O)c1cnccn1)C(=O)OCC` [PC-L-Asp-diEt, diethyl (pyrazine-2-carbonyl)-L-aspartate]: > 500 µM. For `COC(=O)[C@H](CC(C)C)NC(=O)c1cnccn1` [PC-L-Leu-Me, methyl (pyrazine-2-carbonyl)-L-leucinate], the MIC (24 h, read-out: MIC SA) is > 500 µM. Consider `CCOC(=O)CC[C@H](NC(=O)c1cnccn1)C(=O)OCC` [PC-L-Glu-diEt, diethyl (pyrazine-2-carbonyl)-L-glutamate], for which, for the setting “24 h, read-out: MIC SA”, the MIC is > 500 µM. In the case of `COC(=O)CC[C@@H](NC(=O)c1cnccn1)C(=O)OC` [PC-D-Glu-diMe, dimethyl (pyrazine-2-carbonyl)-D-glutamate], the MIC (24 h, read-out: MIC SA) was > 500 µM. Same read-out and setting: for `CCOC(=O)[C@@H](C)NC(=O)c1cnccn1` [PC-D-Ala-Et, ethyl (pyrazine-2-carbonyl)-D-alaninate] the value was > 500 µM; for `CCOC(=O)[C@@H](Cc1c[nH]c2ccccc12)NC(=O)c1cnccn1` [PC-D-Trp-Et, ethyl (pyrazine-2-carbonyl)-D-tryptophanate], > 500 µM. With `COC(=O)[C@H](CCSC)NC(=O)c1cnccn1` [PC-L-Met-Me, methyl (pyrazine-2-carbonyl)-L-methioninate], where the note is “24 h, read-out: MIC SA”, the MIC is > 500 µM.

With `COC(=O)[C@@H](COC(C)(C)C)NC(=O)c1cnccn1` [PC-D-OtBu-Ser-Me, methyl O-(tert-butyl)-N-(pyrazine-2-carbonyl)-D-serinate], where the note is “24 h, read-out: MIC SA”, the MIC is > 500 µM. As to `COC(=O)[C@@H](NC(=O)c1cnccn1)[C@@H](C)OC(C)(C)C` [PC-L-OtBu-Thr-Me, methyl O-(tert-butyl)-N-(pyrazine-2-carbonyl)-L-threoninate], the MIC (24 h, read-out: MIC SA) worked out at 31.2 µM.

With `O=C(N[C@@H](CSCc1ccccc1)C(=O)O)c1cnccn1` [PC-L-SBn-Cys, S-benzyL-N-(pyrazine-2-carbonyl)-L-cysteine], the MIC (24 h, read-out: MIC SA) was 250 µM. On to `COC(=O)[C@@H](CC(C)C)NC(=O)c1cnccn1` [PC-D-Leu-Me, methyl (pyrazine-2-carbonyl)-D-leucinate], for which the MIC (24 h, read-out: MIC SA) was > 500 µM. Take `COC(=O)[C@H](CO)NC(=O)c1cnccn1` [PC-L-Ser-Me, methyl (pyrazine-2-carbonyl)-L-serinate]: the MIC (24 h, read-out: MIC SA) is > 500 µM.

Consider `CCOC(=O)[C@@H](NC(=O)c1cnccn1)C(C)C` (racemic) [PC-DL-Val-Et, ethyl (pyrazine-2-carbonyl)valinate], for which the MIC (24 h, read-out: MIC SA) is > 500 µM.

Turning to `COC(=O)[C@H](NC(=O)c1cnccn1)C(C)C` [PC-D-Val-Me, methyl (pyrazine-2-carbonyl)-D-valinate], under “24 h, read-out: MIC SA”, the MIC was > 500 µM. Same read-out and setting: the same measure for `C[C@@H](NC(=O)c1cnccn1)C(=O)O` [PC-D-Ala, (pyrazine-2-carbonyl)-D-alanine]: > 500 µM; for `C=C(NC(=O)c1cnccn1)C(=O)OC` [PC-MeAcr, methyl 2-(pyrazine-2-carboxamido)acrylate]: > 125 µM; for `CCOC(=O)[C@H](Cc1c[nH]c2ccccc12)NC(=O)c1cnccn1` [PC-L-Trp-Et, ethyl (pyrazine-2-carbonyl)-L-tryptophanate]: > 500 µM. On to `COC(=O)[C@H](NC(=O)c1cnccn1)[C@H](C)OC(C)(C)C` [PC-D-OtBu-Thr-Me, methyl O-(tert-butyl)-N-(pyrazine-2-carbonyl)-D-threoninate], for which the MIC (24 h, read-out: MIC SA) is > 500 µM. `CNC(C)C1CCC(N)C(OC2C(N)CC(N)C(OC3OCC(C)(O)C(NC)C3O)C2O)O1` (centres unmarked) [gentamicin, reference compound]: the MIC (24 h, read-out: MIC, visual detection) amounted to 0.5 µg/mL and the MIC (ATCC29213|CCM4223, 24 h, read-out: MIC, spectrophotometric detection) turned out to be 1 µg/mL. With `CCOC(=O)[C@H](C)NC(=O)c1cnccn1` [PC-L-Ala-Et, ethyl (pyrazine-2-carbonyl)-L-alaninate], under “24 h, read-out: MIC SA”, the MIC was 125 µM. For the molecule `CCOC(=O)[C@H](CC(C)C)NC(=O)c1cnccn1` (racemic) [PC-DL-Leu-Et, ethyl (pyrazine-2-carbonyl)leucinate], for the setting “24 h, read-out: MIC SA”, the MIC was > 500 µM.

On to `COC(=O)[C@H](NC(=O)c1cnccn1)[C@H](C)O` [PC-D-Thr-Me, methyl (pyrazine-2-carbonyl)-D-threoninate], for which the MIC (24 h, read-out: MIC SA) was > 500 µM. `COC(=O)[C@@H](CO)NC(=O)c1cnccn1` [PC-D-Ser-Me, methyl (pyrazine-2-carbonyl)-D-serinate]: the MIC (24 h, read-out: MIC SA) was 250 µM. Turning to `CCOC(=O)[C@H](Cc1ccccc1)NC(=O)c1cnccn1` (racemic) [PC-DL-Phe-Et, ethyl (pyrazine-2-carbonyl)phenylalaninate], under “24 h, read-out: MIC SA”, the MIC was > 500 µM.
